Target: T1, IL-13Rα2 (human, UniProt Q14627 27-380)
T1 construct: whole, on cells; also called IL-13Rα2 receptor
T1 sequence (looked up): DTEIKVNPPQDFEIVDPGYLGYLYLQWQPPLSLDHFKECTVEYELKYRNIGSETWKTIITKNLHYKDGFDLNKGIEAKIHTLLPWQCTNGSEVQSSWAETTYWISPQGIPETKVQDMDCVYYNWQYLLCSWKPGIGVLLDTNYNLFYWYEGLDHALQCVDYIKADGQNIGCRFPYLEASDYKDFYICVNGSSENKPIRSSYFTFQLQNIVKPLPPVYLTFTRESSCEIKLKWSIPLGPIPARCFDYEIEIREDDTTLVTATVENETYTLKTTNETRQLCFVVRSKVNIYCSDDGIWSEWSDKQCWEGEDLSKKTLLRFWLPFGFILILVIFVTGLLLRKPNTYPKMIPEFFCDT
Test: biotin-conjugated proteins on GBM cells; method not given

B1: biotin-conjugated IL-13.E13K (ligand)
chain: not shown
  binding result: binds

Reference: patent US20200095302A1 (WAKE FOREST UNIVERSITY HEALTH SCIENCES, published 2020)
